Some of the results follow.
Test system: PfSIP2 AP2 domain 1 (GST-tagged)
Experiment: gcPBM binding intensity (ln(normalized median fluorescence intensity)); higher = stronger DNA binding
Procedure, shortened: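 The binding buffer was 1× PBS containing 1% milk, 0.2 mg/ml BSA, 0.5% salmon testes DNA and 0.03% Triton X-100. In it, GST-tagged P. falciparum DNA-binding domains expressed in E. coli were applied for 1 h to an Agilent 4 × 180k array of primer-extended double-stranded 36-bp intergenic genomic probes plus negative controls. Binding intensity, read with Alexa488 anti-GST antibody and a 488 nm scan, is the highest Masliner-normalised natural-log median intensity across replicate spots of either probe orientation.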

Sequence | gcPBM binding intensity (ln)
AAAATATAATATAATGCACACATAAAAAAAAAATCA [CACACA_site7922] | 7.32
TATCTGTAAATGGACACACACATATATATATATATA [CACACA_site5926] | 9.64
TCTTTATTATTCGCCACACACATATATATATATATA [CACACA_site3077] | 9.28
TTTTAAAAAAAATAAAAAATAAACAATAATAAATAA [CACACA_negctrl_site721] | 6.9
TATATATATAAAAATACACACATGAATGAATATATA [CACACA_site419] | 7.94
CTTTTTTTTTTTTTTTGTCCGTATGAGGGACCTATA [XGTACX_site8839] | 6.8
TCCATTGTCACCTTTTGTACTTAAATTTTTTCCTCC [XGTACX_site1573] | 7.02
ATATCATCTTCTCTATCATTTTTTTTTTTTTTTTTT [CACACA_negctrl_site1220] | 7.69
TGAGATAAATGTGGTAGTACATTTTTTTTATATATA [XGTACX_site1918] | 7.11
CAAAAATTACCCTTGTGTACACATATATTATATGTA [XGTACX_site1124] | 7.01
ATAAAAAAATCAGACACACACACGTAAACACATACA [CACACA_site5529] | 7.12
TTAATTATGTTTTGGTGTACAATAAATTGAATAGAT [XGTACX_site3306] | 7.34
CTACTTAATATTTGTACACACATATTTAACCTACTA [CACACA_site5725] | 7.32
ATGTTATAATTTAGTGTGCACATATTAAGAGGAACA | 10.1
ATATATATTTATATATGTACATATTTTTGTGTATTT [XGTACX_site1183] | 7.21
ATATATATATATATATGTACATAATAATTTTATAAA [XGTACX_site5105] | 8.85
AATAATAATAGAAACACACACACATTTTTAATAATA [CACACA_site1217] | 6.84
ATATATTTTATACATACACACATATATATATTTTTT [CACACA_site3940] | 7.23
TGATTAAATCAAGAAAGTACAAAATGAAATATATAA [XGTACX_site4319] | 7.03
AAAATAATTTTATAGTTGCACTATATCGTATACAAT | 8.54
TAAAGTGTAAAATTCACACACATATAAATAAATATA [CACACA_site6765] | 6.82
TTTAAAAAAAAAAATACACACATAAAAGTTTTCAAA [CACACA_site6471] | 6.74

Sequence | gcPBM binding intensity (ln)
TACAAAAGCTATAACATTCACCACATTATAAAAATA [CACACA_negctrl_site1112] | 6.95
TTTTCATTAAGATACTTATAATAGTTTATTAGTAAA [CACACA_negctrl_site586] | 6.67
TTACAAATATTATAATGTACCCATTTTTTTTGCCTT [XGTACX_site6612] | 6.91
AATTCAAAGAAAAACTGTACGTGTAGCAAACATCCT [XGTACX_site599] | 7.07
TAATATGAAGATGGCAGTACTCTAGTCAATTTTTAC [XGTACX_site5375] | 6.79
AAAATATATAAATATACATGCATAATTAATAGTATA [TGCATGCA_site804] | 6.92
TATTATATATATAGGTGTACGCATTTGTCCTTTATA [XGTACX_site1385] | 7.19
AAACTTATGTTTACATGTACAGAACTTTATATTATG [XGTACX_site4843] | 6.95
TCGAACATTAACATAACACACATATAGATTTATATA [CACACA_site7380] | 6.96
TTATTCTTTAACTAAAATTATATATATATATTATAC [CACACA_negctrl_site1597] | 7.03
TTGTATGCTTCCCGACTACATTATGCCATAAATGTA [TGCATGCA_negctrl_site136] | 6.97
ATAACTTATTTTTAAAGTACATTATTATATATATAT [XGTACX_site1620] | 8.61
ATTGTAATAAATTGTAGTACATGTAAGGTTTTATTT [XGTACX_site1005] | 7.04
AATAAAAATATATCCACACACATATATAAATATGTA [CACACA_site6415] | 6.78
TTAAGAATATTTTCATGTACTCATTTTTTTTGTTAT [XGTACX_site1814] | 7
ATTACATATGTGAGTTGTACTATAAATATATAATAT [XGTACX_site3718] | 7.09
AAAACAAACATTACACGTACAAAACAAGTTATAGAC [XGTACX_site6320] | 7.22
TTTTTGATATTAAAGGGTACATTATTTACAAAAAAA [XGTACX_site5284] | 6.93
ATGCTTTTTTATAAAAGTACATAAAGTTTTTACACT [XGTACX_site7307] | 6.95
CTGCCTTCCATACCCACACACTTCCCATATATTTTA [CACACA_site5491] | 7.57
GATCCTGGTTCTTGTGGTACTTGTTCATTTGTTATA [XGTACX_site7164] | 7.07
ATTCTTTTATTTAGTAGTACATTTGTATTTTATTCA [XGTACX_site5790] | 7.39

Sequence | gcPBM binding intensity (ln)
TAAACATTTTTAATTTTGTAAAATTTTAAATAAAAA [XGTACX_negctrl_site612] | 6.75
ACAAACAAAGAAAGAACACACATACACAAGATACCT [CACACA_site7353] | 6.81
TGAATATTTTATGATTGTACATATTATAATAAACAT [XGTACX_site6113] | 7.05
AATATTTTAATGCACACACACAAAAAAAAAAAAAAA [CACACA_site7374] | 7.35
AATCCTTTACGACACACACACAAAAAAAAAAAAAAA [CACACA_site6449] | 7.22
TTTTTCTTTCTTTCTTTTTTAATATTACAAATGTAT [XGTACX_negctrl_site267] | 7.08
TTATTAAAACAAAATGTACACACATATAATTTAATG [CACACA_site8193] | 7
TTCAATGCATGTCCATGTACATATAAAAAAAAATAC [XGTACX_site1597] | 7.45
TGTTGGCAGGTGAATGCATGCATATAAGTCTATCTG [TGCATGCA_site781] | 6.82
CACCCTTTACACAAGGTGCATACTTTATTATATTTT [GTGCAC_site9778] | 10.6
AAAGTAGAATATCCCCTACACACCCAAATAATTTAC [CACACA_site1255] | 7.28
AACCACATACCTATAACACACATATACAATATAGAT [CACACA_site7023] | 7.22
TCCACAAAGCATGTAACACACAACATATAAGACATA [CACACA_site972] | 6.99
ACATCATAGAAAAATTGATATATATATATATATATA [CACACA_negctrl_site130] | 9.65
TATATATTTTATTTATGTACGAAAATAAATTAAATT [XGTACX_site3628] | 6.94
TTAAAAAAATTAATATGTACATATATTTATATATAT [XGTACX_site5317] | 7.34
TATTAAAAAGAGGTGACACACACATATAAATCTAAA [CACACA_site9243] | 6.79
AAATATATATAAATGAGTACTTATGGTAACATATAT [XGTACX_site6362] | 7.43
AGAGCATAATAAAACACACACATACATACCTATATA [CACACA_site6566] | 6.96
AAAAAATATTGAAGTACACACATTATGAACTTTTTT [CACACA_site1733] | 6.98
ATAAATAATTATAATTGTACACATATATATATATAC [XGTACX_site3998] | 7.27
TTCCACATTTTACAGACACACACAATTTATATTACG [CACACA_site8572] | 7.31

Sequence | gcPBM binding intensity (ln)
TGTTTTTATAATATTAGTACATAATATACATAATTC [XGTACX_site2787] | 7.11
AATAAATTAATTTTGGGTACATATATATATATATAT [XGTACX_site3807] | 9.31
GTAAGTTGTGCATTCACACACATATATATATATATA [CACACA_site3303] | 9.85
TTTTGTTTCTATATAAGATGGAAATATAAACTTGTA [CACACA_negctrl_site82] | 6.99
TTAAGATCCTAAAAAACACACAATTGTGAATAATAA [CACACA_site3872] | 6.75
TATATATATATATATACATGCATATATATAATATAT [TGCATGCA_site763] | 9.31
TAAAAAAATTTAACATGTACAAATATTGAAAAGGAC [XGTACX_site7608] | 7.75
ATTAAAAAAGAATATACACACCAAAACTGTTTGTTA [CACACA_site4687] | 6.67
GAAGAATAAATATGCACACATGCATATATTTTTACA [CACACA_site3459] | 9.35
ATATATTTTTACCATACACACATATAACAAATATAT [CACACA_site7706] | 7.41
TTTATTATCTTATTCACACACATATATATATATATA [CACACA_site2869] | 9.64
AGAAAAAAAAAAAAAAAAAAAAAATTGAATATATAT [TGCATGCA_negctrl_site55] | 6.71
TACAATTCGTAATACACACACATATATATATATATT [CACACA_site3751] | 7.19
ATATTCCTACATACAACACACGACGTTCTCATAAGA [CACACA_site231] | 7.3
GGAAAATGAAAAACAAAAAAAAAAAAAAAAAAATGA [TGCATGCA_negctrl_site432] | 6.65
AAAAATAGACAAAAGAGTACAAGAAAAAAAGGGTTC [XGTACX_site7843] | 6.8
ACATCTGTTATTTGTGGTACTAAAAAAATATATAGT [XGTACX_site8322] | 7.08
TCTTTTTAGATATATACACACCGTGTCTACCTATAC [CACACA_site7551] | 6.86
TTTTAAAGTTGTGAGCTTCATTTTTATTTATATGTA [CACACA_negctrl_site1505] | 6.76
TTACAATTAATAAAGTGTACTTAACTATTATATATA [XGTACX_site481] | 7
TTGATCTATAATAATACACACTTACATAATTAATTA [CACACA_site6273] | 6.98
ATATATATATATGTCTGTACATAAAAAATAATAAAT [XGTACX_site3122] | 9.01

— the supplement of paper PMC11417369
